In paper PMC4336329 (PLoS ONE, 2015):
Out of some 310,000 compounds screened, about 2,200 (0.71%) showed an effect of 50% or more. Effects have a minus sign here. The list shows a part of the results.

target: human ether-à-go-go-related gene (hERG) potassium channel (human, UniProt Q12809); assay: primary screen, population patch clamp on CHO cells stably expressing hERG
Sequence (Q12809 whole entry, looked up): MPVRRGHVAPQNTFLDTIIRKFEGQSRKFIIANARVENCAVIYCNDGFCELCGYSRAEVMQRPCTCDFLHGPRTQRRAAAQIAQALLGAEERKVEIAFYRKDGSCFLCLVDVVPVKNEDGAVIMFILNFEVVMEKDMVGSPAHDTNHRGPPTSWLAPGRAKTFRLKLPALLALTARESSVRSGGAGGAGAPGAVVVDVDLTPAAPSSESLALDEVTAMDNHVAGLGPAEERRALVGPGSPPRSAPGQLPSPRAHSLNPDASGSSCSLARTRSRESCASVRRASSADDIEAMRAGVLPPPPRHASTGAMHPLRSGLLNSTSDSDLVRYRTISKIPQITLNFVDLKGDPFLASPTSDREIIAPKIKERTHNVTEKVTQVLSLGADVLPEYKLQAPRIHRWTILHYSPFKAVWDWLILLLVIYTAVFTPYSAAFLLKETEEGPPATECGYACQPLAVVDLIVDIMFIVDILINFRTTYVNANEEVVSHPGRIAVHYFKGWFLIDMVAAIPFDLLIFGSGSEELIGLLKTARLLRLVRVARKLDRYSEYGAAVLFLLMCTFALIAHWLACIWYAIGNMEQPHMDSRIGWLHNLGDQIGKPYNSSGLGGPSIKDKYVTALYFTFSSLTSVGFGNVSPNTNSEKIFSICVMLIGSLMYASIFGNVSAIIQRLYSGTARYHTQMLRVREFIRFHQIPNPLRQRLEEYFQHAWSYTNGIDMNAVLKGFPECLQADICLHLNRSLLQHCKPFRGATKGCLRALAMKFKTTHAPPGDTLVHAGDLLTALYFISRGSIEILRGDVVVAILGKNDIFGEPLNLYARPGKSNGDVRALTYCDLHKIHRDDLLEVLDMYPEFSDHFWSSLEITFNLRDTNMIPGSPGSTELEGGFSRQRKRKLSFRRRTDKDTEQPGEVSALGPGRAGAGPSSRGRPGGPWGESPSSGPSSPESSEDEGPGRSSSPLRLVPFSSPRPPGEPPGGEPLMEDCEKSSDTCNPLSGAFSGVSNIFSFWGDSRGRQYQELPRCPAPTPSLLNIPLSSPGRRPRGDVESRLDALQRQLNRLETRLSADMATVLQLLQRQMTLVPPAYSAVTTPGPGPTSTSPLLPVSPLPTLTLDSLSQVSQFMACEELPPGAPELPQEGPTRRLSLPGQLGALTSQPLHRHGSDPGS

SMILES	hERG current change (%, negative = inhibition) at 1uM
Cc1ccc(NC(=O)C2CCCN(S(=O)(=O)c3c(C)noc3/C=C/N(C)C)C2)cc1F (stereo not drawn)	2.13%
OCC1(c2cc(C(F)(F)F)n[nH]2)CCCCC1	4.63%
Cc1cc(C(=O)N2CCN(c3ncccn3)CC2)sc1-c1ccccc1	1.2%
Cc1ccc(C2Nc3cccc4cccc(c34)N2)cc1	7.8%
CC(NC(=O)C12CC3CC(CC(C3)C1)C2)C(=O)N/N=C/C1=C(N2CCOCC2)C(=C\c2cccc([N+](=O)[O-])c2)/CC1 (stereo not drawn)	7.96%
CCN(CC)C(=O)CSc1nc2ccc(NC(=O)CSc3nnc(COc4ccccc4C)n3C)cc2s1	-5.55%
CCn1nc(C)c(/C=N\NC(=O)c2ccc3c(c2)OCO3)c1C	12.1%
COc1cccc(N(CC(=O)Nc2cccnc2)S(C)(=O)=O)c1	16.1%
CCSc1nc2sc3c(c2c(=O)n1CC)CC(C)(C)OC3	10.1%
C/C=C/C=C/C(=O)N1CC2(CC(c3cccc(NC(=O)CCCCC)c3)=NO2)C[C@H]1C(N)=O (stereo partly drawn)	7.79%
Cc1cccc(/C=C/c2onc(C)c2S(=O)(=O)N2CCC(C(=O)N3CCC(C)CC3)CC2)c1	15.5%
Br.Oc1ccc(C2CNCc3sccc32)cc1O (stereo not drawn)	3%
CCC(=O)c1ccc(N2CCN(C(=O)Cc3ccccc3)CC2)c(F)c1	3.13%
CC(=O)c1ccc(OCCCC(=O)NCC(c2ccco2)N(C)C)cc1 (stereo not drawn)	-7%
C/C(CC(=O)Nc1ccc2c(c1)OCCO2)=N\NC(=O)c1ccccn1	15.8%
CCOc1ccc(N2CC(C(=O)NNC(=O)c3ccc(Br)cc3)CC2=O)cc1 (stereo not drawn)	10.2%
CN(C(=O)CSc1nc2c(c(=O)[nH]1)CCCC2)C1CCCCC1	2.05%
CSc1cccc(N2CC(C(=O)N(Cc3nnc(-c4ccccc4Cl)o3)C3CC3)CC2=O)c1 (stereo not drawn)	-5.53%
O=C(O)CCC(=O)N1N=C(c2ccccc2)CC1c1ccc2nccnc2c1 (stereo not drawn)	3.95%
COc1ccc(CCNC(=O)C23CCC(C)(C(=O)C2Br)C3(C)C)cc1OC (stereo not drawn)	11.3%
O=C1CCN(N=Nc2cccc(Cl)c2)N1	3.87%
O=C(COC(=O)c1ccc2c(c1)OCO2)NCc1ccc2c(c1)OCO2	-5.64%
COc1cc(/C=C/C(=O)Nc2cccc(S(=O)(=O)NC3=NCCCCC3)c2)ccc1OCC#N	8.06%

SMILES	hERG current change (%, negative = inhibition) at 1uM
COc1cc2c(cc1NC(=O)CSc1cccc[n+]1[O-])oc1ccccc12	4.85%
c1ccc2c(c1)SCc1nnc(-c3ccncc3)n1-2	10%
COCCNC(=O)C1CC(c2cccc(F)c2)=NO1 (stereo not drawn)	2.5%
COc1ccc(/C=C/c2nnc(NC(=O)CSc3ccc(C)cc3)s2)cc1	16.7%
CC1CCN(C(=O)COC(=O)CNC(=O)C23CC4CC(CC(C4)C2)C3)CC1	4.31%
CC1CCCN(C(=O)Cn2c(=O)oc3ccccc32)C1 (stereo not drawn)	7.25%
CC1CN(C(=O)c2cc(Br)c(Br)s2)CC(C)O1 (stereo not drawn)	6.69%
Cc1nn(Cc2ccccc2)c(C)c1NC(=O)Cn1nc([N+](=O)[O-])c(Cl)c1C	6.51%
Cl.N=C(N)SCc1ccccn1	3.39%
COC(CN(C(=O)CCl)C(C(=O)NC1CCCCC1)c1ccc(Cl)cc1)OC (stereo not drawn)	11.2%
COC(=O)c1ccc(NCCC(=O)O)cc1	2.12%
COc1ccc(CCOC(=O)c2cccc(NC(C)=O)c2)cc1	9.17%
N#CC(C#N)=C(Nc1ccc(F)cc1)SCc1cccc(Br)c1	10.6%
Cc1cc(C)c(Nc2ncnc(N)n2)c(C)c1	8.3%
Cc1cc(Br)c2[nH]c3c(c2c1)CCCC3=O	3.53%
COC(=O)c1sc(S(=O)(=O)N2CC(C)OC(C)C2)c(C(=O)OC)c1C (stereo not drawn)	11%
COc1cccc(/C=N/NC(=O)C(=O)NCc2ccco2)c1OC	11.6%
O=C(N/N=C\c1ccncc1)c1ccc(Br)s1	16.4%
Cc1cccc(C)c1OCc1cc(C(=O)NC2CCC2)no1	14.3%
COc1ccc(-c2nn(C)c(=O)c3ccccc23)cc1NC(=O)COc1ccc(C)cc1	1.89%
O=C(NCSc1ccccc1)c1ccccc1	9.21%
CC(=O)NN1C(=O)c2ccccc2NC1c1ccccn1 (stereo not drawn)	15.9%
